# Results taken from the supplement of paper PMC8728848.
# The other results are listed elsewhere or left out.
# B1: MIC1 (Toxoplasma gondii), O00834 (protein)
# chain: VGPEAYGEASHSHSPASGRYIQQMLDQRCQEIAAELCQSGLRKMCVPSSRIVARNAVGITHQNTLQWRCFDTASLLESNQENNGVNCVDDCGHTIPCPGGVHRQNSNHATRHEILSKLVEEGVQRFCSPYQASANKYCNDKFPGTIARRSKGFGNNVEVAWRCYEKASLLYSVYAECASNCGTTWYCPGGRRGTSTELDKRHYTEEEGIRQAIGSVDSPCSEVEVCLPKDENPPLCLDESGQISRT
# Tests used:
# Assay in all cases: glycan array binding signal (z-score within array); higher = stronger binding
# Conditions in all cases: glycan notation: IUPAC condensed, linker removed
# [1] = target: Neu5Ac(a2-6)Gal(b1-4)GlcNAc(b1-6)[Gal(b1-3)GlcNAc(b1-3)]Gal(b1-4)Glc
# Method in brief: (§1)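 Arrays were curated from the Consortium for Functional Glycomics database, 3228 in total, and kept only where the protein sequence was available. Binding is expressed as a within-array Z-score. This score was averaged across arrays of the same protein sequence at different concentrations or buffers and across linkers, and negative values can be read as non-binding.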
# [2] = target: Neu5Ac(a2-6)Gal(b1-4)[Fuc(a1-3)]GlcNAc(b1-3)Gal(b1-4)Glc
# Method in brief: as §1
# Neu5Ac(a2-6)GalNAc = target: Neu5Ac(a2-6)GalNAc
# Method in brief: as §1
# Neu5Ac(a2-8)Neu5Ac = target: Neu5Ac(a2-8)Neu5Ac
# Method in brief: as §1
# [3] = target: Neu5Ac(a2-8)Neu5Ac(a2-3)Gal(b1-3)GalNAc(b1-4)[Neu5Ac(a2-3)]Gal(b1-4)Glc
# Method in brief: as §1
# [4] = target: Neu5Ac(a2-8)Neu5Ac(a2-3)Gal(b1-3)GalNAc(b1-4)[Neu5Ac(a2-8)Neu5Ac(a2-3)]Gal(b1-4)Glc
# Method in brief: as §1
# [5] = target: Neu5Ac(a2-8)Neu5Ac(a2-3)Gal(b1-4)Glc
# Method in brief: as §1
# [6] = target: Neu5Ac(a2-8)Neu5Ac(a2-3)[Gal(b1-3)GalNAc(b1-4)]Gal(b1-4)Glc
# Method in brief: as §1
# [7] = target: Neu5Ac(a2-8)Neu5Ac(a2-3)[GalNAc(b1-4)]Gal(b1-4)Glc
# Method in brief: as §1
# [8] = target: Neu5Ac(a2-8)Neu5Ac(a2-8)Neu5Ac
# Method in brief: as §1
# [9] = target: Neu5Ac(a2-8)Neu5Ac(a2-8)Neu5Ac(a2-8)Neu5Ac
# Method in brief: as §1
# [10] = target: Neu5Ac(a2-8)Neu5Ac(a2-8)Neu5Ac(a2-8)Neu5Ac(a2-8)Neu5Ac
# Method in brief: as §1
# [11] = target: Neu5Ac(a2-8)Neu5Ac(a2-8)Neu5Ac(a2-8)Neu5Ac(a2-8)Neu5Ac(a2-8)Neu5Ac
# Method in brief: as §1
# [12] = target: Neu5Ac(a2-8)Neu5Ac(a2-8)Neu5Ac(a2-8)Neu5Ac(a2-8)Neu5Ac(a2-8)Neu5Ac(a2-8)Neu5Ac
# Method in brief: as §1
# [13] = target: Neu5Ac(a2-8)Neu5Ac(a2-8)Neu5Ac(a2-8)Neu5Ac(a2-8)Neu5Ac(a2-8)Neu5Ac(a2-8)Neu5Ac(a2-8)Neu5Ac
# Method in brief: as §1
# [14] = target: Neu5Ac(a2-8)Neu5Ac(a2-8)Neu5Ac(a2-8)Neu5Ac(a2-8)Neu5Ac(a2-8)Neu5Ac(a2-8)Neu5Ac(a2-8)Neu5Ac(a2-8)Neu5Ac
# Method in brief: as §1
# [15] = target: Neu5Ac(a2-8)Neu5Ac(a2-8)Neu5Ac(a2-8)Neu5Ac(a2-8)Neu5Ac(a2-8)Neu5Ac(a2-8)Neu5Ac(a2-8)Neu5Ac(a2-8)Neu5Ac(a2-8)Neu5Ac
# Method in brief: as §1
# [16] = target: Neu5Ac(a2-8)Neu5Ac(a2-8)Neu5Ac(a2-8)Neu5Ac(a2-8)Neu5Ac(a2-8)Neu5Ac(a2-8)Neu5Ac(a2-8)Neu5Ac(a2-8)Neu5Ac(a2-8)Neu5Ac(a2-8)Neu5Ac
# Method in brief: as §1
# [17] = target: Neu5Ac(a2-9)Neu5Ac(a2-3)Gal(b1-4)Glc
# Method in brief: as §1
# Neu5Ac(b2-3)Gal(b1-4)Glc = target: Neu5Ac(b2-3)Gal(b1-4)Glc
# Method in brief: as §1
# Neu5Ac(b2-6)Gal(b1-4)Glc = target: Neu5Ac(b2-6)Gal(b1-4)Glc
# Method in brief: as §1
# [18] = target: Neu5Ac9Ac(a2-6)Gal(b1-4)GlcNAc
# Method in brief: as §1
# [19] = target: Neu5Gc(a2-3)Gal(b1-3)GlcNAc(b1-3)Gal(b1-4)Glc
# Method in brief: as §1
# Neu5Gc(a2-3)Gal(b1-4)Glc = target: Neu5Gc(a2-3)Gal(b1-4)Glc
# Method in brief: as §1
# [20] = target: Neu5Gc(a2-3)Gal(b1-4)[Fuc(a1-3)]GlcNAc(b1-3)Gal
# Method in brief: as §1
# [21] = target: Neu5Gc(a2-3)[GalNAc(b1-4)]Gal
# Method in brief: as §1
# [22] = target: Neu5Gc(a2-6)Gal(b1-3)GlcNAc(b1-3)Gal(b1-4)Glc
# Method in brief: as §1
# [23] = target: Neu5Gc(a2-6)Gal(b1-4)GlcNAc(b1-2)Man(a1-3)[Neu5Gc(a2-6)Gal(b1-4)GlcNAc(b1-2)Man(a1-6)]Man(b1-4)GlcNAc(b1-4)GlcNAc
# Method in brief: as §1
# Neu5Gc(a2-6)GalNAc = target: Neu5Gc(a2-6)GalNAc
# Method in brief: as §1
# Rha(a1-6)Glc = target: Rha(a1-6)Glc
# Method in brief: as §1
# [24] = target: Xyl(a1-6)Glc(b1-4)[Xyl(a1-6)]Glc(b1-4)[Xyl(a1-6)]Glc(b1-4)Glc
# Method in brief: as §1
# [25] = target: Xyl(b1-2)[Man(a1-3)][Man(a1-6)]Man(b1-4)GlcNAc(b1-4)GlcNAc
# Method in brief: as §1
# [26] = target: Xyl(b1-2)[Man(a1-3)][Man(a1-6)]Man(b1-4)GlcNAc(b1-4)[Fuc(a1-3)]GlcNAc
# Method in brief: as §1
# [27] = target: Xyl(b1-4)Xyl(b1-4)Xyl(b1-4)Xyl(b1-4)Xyl
# Method in brief: as §1
# [28] = target: Xyl(b1-4)Xyl(b1-4)Xyl(b1-4)Xyl(b1-4)Xyl(b1-4)Xyl
# Method in brief: as §1
binder,measurement,setting,value
B1,glycan array binding signal (z-score),[1],-0.373
same,glycan array binding signal (z-score),[2],-0.412
same,glycan array binding signal (z-score),Neu5Ac(a2-6)GalNAc,0.975
same,glycan array binding signal (z-score),Neu5Ac(a2-8)Neu5Ac,-0.43
same,glycan array binding signal (z-score),[3],1.68
same,glycan array binding signal (z-score),[4],-0.411
same,glycan array binding signal (z-score),[5],-0.451
same,glycan array binding signal (z-score),[6],-0.443
same,glycan array binding signal (z-score),[7],-0.44
same,glycan array binding signal (z-score),[8],-0.354
same,glycan array binding signal (z-score),[9],0.178
same,glycan array binding signal (z-score),[10],1.04
same,glycan array binding signal (z-score),[11],0.202
same,glycan array binding signal (z-score),[12],0.074
same,glycan array binding signal (z-score),[13],-0.072
same,glycan array binding signal (z-score),[14],-0.104
same,glycan array binding signal (z-score),[15],-0.247
same,glycan array binding signal (z-score),[16],-0.322
same,glycan array binding signal (z-score),[17],-0.386
same,glycan array binding signal (z-score),Neu5Ac(b2-3)Gal(b1-4)Glc,-0.478
same,glycan array binding signal (z-score),Neu5Ac(b2-6)Gal(b1-4)Glc,-0.475
same,glycan array binding signal (z-score),[18],-0.443
same,glycan array binding signal (z-score),[19],2.33
same,glycan array binding signal (z-score),Neu5Gc(a2-3)Gal(b1-4)Glc,2.13
same,glycan array binding signal (z-score),[20],-0.125
same,glycan array binding signal (z-score),[21],4.78
same,glycan array binding signal (z-score),[22],2.08
same,glycan array binding signal (z-score),[23],0.198
same,glycan array binding signal (z-score),Neu5Gc(a2-6)GalNAc,4.8
same,glycan array binding signal (z-score),Rha(a1-6)Glc,-0.287
same,glycan array binding signal (z-score),[24],-0.287
same,glycan array binding signal (z-score),[25],-0.287
same,glycan array binding signal (z-score),[26],-0.287
same,glycan array binding signal (z-score),[27],-0.287
same,glycan array binding signal (z-score),[28],-0.287
